# Assay results published in the supplement of paper PMC3334620.
# Whole data set: some 33,000 sequences, median “E-score (-0.5 to 0.5)” near -0.016, cut for the highest 2% near 0.32. The list shows a part of the results.
# Target: T1, Stp1 (UniProt B3LFK1)
# T1 sequence: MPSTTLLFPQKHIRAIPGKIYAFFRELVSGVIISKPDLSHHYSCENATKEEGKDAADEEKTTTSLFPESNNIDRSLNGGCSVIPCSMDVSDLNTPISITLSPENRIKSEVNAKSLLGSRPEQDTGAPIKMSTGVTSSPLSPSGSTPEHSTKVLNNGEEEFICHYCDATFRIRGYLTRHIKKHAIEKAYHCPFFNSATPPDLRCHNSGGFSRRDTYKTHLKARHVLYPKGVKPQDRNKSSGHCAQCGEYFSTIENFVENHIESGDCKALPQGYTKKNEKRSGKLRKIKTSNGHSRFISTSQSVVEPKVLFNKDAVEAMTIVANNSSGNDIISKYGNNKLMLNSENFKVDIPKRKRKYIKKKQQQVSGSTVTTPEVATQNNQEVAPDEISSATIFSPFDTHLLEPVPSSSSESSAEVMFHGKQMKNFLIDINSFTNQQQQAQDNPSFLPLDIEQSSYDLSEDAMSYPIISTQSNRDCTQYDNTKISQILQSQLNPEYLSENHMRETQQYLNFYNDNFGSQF
# Experiment: PBM E-score (8-mer binding enrichment) (E-score (-0.5 to 0.5)); higher = stronger / more preferred TF binding; most listed sequences are background and not binding sites
# Details: protein concentration: 200 nM; construct: GST-full length
# Experimental: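 Universal 'all 10-mer' protein binding microarrays (Agilent AMADID 015681) probed with GST-tagged S. cerevisiae TFs (full-length or DBD) made by in vitro transcription/translation (PURExpress), about 100-200 nM. Bound TF was detected with fluorescent anti-GST. Each ungapped 8-mer (which stands for itself and its reverse complement) is scored by the PBM enrichment score (E-score), a modified Wilcoxon-Mann-Whitney statistic from -0.5 to +0.5, computed with the Universal PBM Analysis Suite. Scale: above 0.35 generally sequence-specific binding.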
row,Sequence,PBM E-score
1,CGGGTCAG,0.0137
2,GATGAGAC,0.0979
3,CTTACTAA,-0.0866
4,CCTATTGA,-0.0999
5,AGACCTAT,-0.0764
6,AAGCCCAT,-0.0914
7,AACATCAT,-0.0756
8,AAGGCCAA,-0.0435
9,CTCTGAGA,-0.194
10,CCCTGAAC,-0.0646
11,GACTCTTA,-0.209
12,GAGCTAGA,-0.0519
13,AACAAAAG,0.244
14,GGCGGAAC,0.125
15,AGGCGTCC,-0.0371
16,CCATGGCC,-0.177
17,CATCCAGC,-0.0777
18,CGTGTATA,0.132
19,ATAGCGCA,-0.228
20,GCGCAAGA,0.223
21,TACGATCA,0.0444
22,AGTGAATG,0.0894
23,AAGCGAAG,0.00833
24,ATGTCTTG,-0.0302
25,ACAATCAT,-0.00872

row,Sequence,PBM E-score
1,AAAAGACA,0.161
2,ACGCACTG,-0.144
3,ATGACGGA,-0.0588
4,GAAGCATA,-0.00057
5,GCTATTTA,0.0633
6,GAGTGGGA,-0.161
7,CCACGCGG,0.18
8,CCCATTAA,-0.0754
9,AATCATCA,0.0432
10,CATGGAAA,0.0744
11,ACAGCAGG,-0.136
12,CTCCTAAC,-0.289
13,ACCGAGAA,-0.0545
14,ACTCTGCC,-0.107
15,CTGTTTAC,0.0717
16,GTTATCCA,-0.0565
17,CCATAGAC,-0.075
18,CCAGTTAA,0.0601
19,AATTCATA,0.108
20,GCCAGGAA,-0.0276
21,AGTGACAT,-0.0142
22,GAGCGCTA,-0.0884
23,GAGTAGAC,0.0184
24,CCAAACAG,0.0273
25,CAAAGCTC,-0.276

row,Sequence,PBM E-score
1,GACCGTCC,-0.287
2,AACACGTA,0.0517
3,AACGTAGG,-0.217
4,CCATTTGC,0.116
5,ACGAACCA,0.152
6,CAAGTAAG,0.0789
7,AAACGATT,0.0574
8,CAGCGAGG,-0.144
9,GCATCTGA,-0.142
10,GCCTATAC,-0.164
11,AGATTCCT,-0.137
12,ATATGTCA,0.0964
13,GCAGTGCC,0.253
14,ATAACCGA,-0.063
15,CAAGGTGA,-0.129
16,TGGAACCA,0.0229
17,GGTCACGA,-0.0819
18,CGGCAGAA,0.328
19,CGCAGCCA,0.0536
20,GTTTGCGA,0.0649
21,CGCCGAAC,0.347
22,TCACAAGA,0.0558
23,ATGCGTAC,0.163
24,AACCTGTC,-0.17
25,CTGATGAA,-0.0479

row,Sequence,PBM E-score
1,TGTAATAA,0.189
2,ATTCGACC,-0.208
3,CGCGTTCC,-0.135
4,ACGACACA,0.163
5,CTACCAGA,-0.0299
6,ATAGCTCG,-0.0254
7,GAGTGAGA,-0.00238
8,AGTTGGGA,-0.114
9,ATAGCCAT,-0.0256
10,GCGGCCTA,0.00545
11,CTTTCACA,0.176
12,AAAATTAA,0.0635
13,CATGCCAC,0.0306
14,AACAAGAG,-0.104
15,AGCGGTCC,-0.159
16,AATGCCTG,0.0179
17,CTAAGGGA,-0.185
18,TACGTGAA,0.0531
19,CTACTCAG,-0.145
20,AAAGCCGG,0.135
21,GAACTACA,-0.0336
22,GTGATCCA,-0.179
23,AGACATAT,-0.00989
24,CACTCGTC,-0.0386
25,TATCGACA,0.134

row,Sequence,PBM E-score
1,ACAAGTCT,-0.16
2,TATCGCCA,0.23
3,CATCACAA,0.123
4,CCCGACGG,-0.00055
5,ATAAGTTC,-0.0171
6,GCCCTTAA,-0.0909
7,GAAGGGTC,-0.175
8,GGGAGCCA,-0.214
9,AGATAGTA,0.0718
10,AGCGGCGC,0.452
11,CGACATCA,0.0508
12,GAATAACA,0.166
13,ATCAGTCA,-0.0158
14,ATGAACTC,-0.186
15,CTCTTAGC,0.0466
16,CAGTGCCA,-0.0624
17,AGGTTTGG,-0.105
18,ACAAGTCC,-0.178
19,ATCTAGAT,-0.0643
20,ACCGGAGT,-0.00772
21,GGCTTTAC,0.212
22,GTGTACAA,0.17
23,AAATTGCG,0.0941
24,AATAGACA,-0.11
25,AGGAGAAA,-0.21

row,Sequence,PBM E-score
1,CTCTATGA,-0.0121
2,GACCACTA,-0.158
3,GAACGGTC,-0.0534
4,TCTTTTCA,0.0882
5,AAGCCATA,-0.072
6,ACGCTCCC,-0.239
7,AACTAATC,0.0053
8,GATTAAGA,0.102
9,GGATCAGA,-0.138
10,AATACCAA,0.0583
11,CTATGTAC,-0.182
12,GAGACGGC,0.411
13,CGGCACCA,0.462
14,GAAGCTTA,-0.00959
15,AACTGACA,0.043
16,AGGAAAAT,-0.119
17,ATTACCAC,0.0153
18,AATATATC,0.27
19,CACCGTCA,0.0243
20,AGATTGCG,0.0474
21,GCGCGCTA,0.113
22,GTATCTCA,0.14
23,GGTCGAAC,-0.0638
24,GGTAGTAA,-0.236
25,AAGGTCGA,-0.106

row,Sequence,PBM E-score
1,GCCGTAAA,0.369
2,GCCATGCA,0.194
3,ATTCTTTA,0.0763
4,CCGGGGCG,-0.0988
5,CAATCGTG,-0.0536
6,CATCCACG,0.0537
7,TATCCGGA,0.0774
8,CCACAACG,-0.0392
9,GGAGAAAA,0.00747
10,TCATCTAA,0.0913
11,AGATGACA,-0.0294
12,AATCAGAC,0.0846
13,CAGAGCTG,-0.147
14,CTGGGAAA,0.0002
15,AGTCATAA,-0.0349
16,TCAGAAGA,-0.204
17,ACTAGTTA,0.0825
18,ACGGAACG,0.142
19,CCTAATAC,0.0462
20,GTCTAGTA,-0.0452
21,ATGGCTGC,0.0206
22,ACGACCGC,-0.158
